# This is one part of the list.
# How the values were obtained:
# Assay in all cases: glycan array binding signal (z-score within array); higher = stronger binding
# Conditions in all cases: glycan notation: IUPAC condensed, linker removed
# [1] = target: Fuc(a1-2)Gal
# How it was run: (§1)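 The binding signal is a Z-score computed within each array. Data were drawn from 3228 arrays in the Consortium for Functional Glycomics database, restricted to those with a known protein sequence. Scores were averaged over arrays of the same protein sequence at different concentrations or buffers, and over linkers, and negative values can be taken as non-binding.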
# [2] = target: Fuc(a1-2)Gal(b1-3)GalNAc
# How it was run: as §1
# [3] = target: Fuc(a1-2)Gal(b1-3)GalNAc(b1-3)Gal
# How it was run: as §1
# [4] = target: Fuc(a1-2)Gal(b1-3)GalNAc(b1-3)Gal(a1-4)Gal(b1-4)Glc
# How it was run: as §1
# [5] = target: Fuc(a1-2)Gal(b1-3)GalNAc(b1-4)[Neu5Ac(a2-3)]Gal(b1-4)Glc
# How it was run: as §1
# [6] = target: Fuc(a1-2)Gal(b1-3)GlcNAc
# How it was run: as §1
# [7] = target: Fuc(a1-2)Gal(b1-3)GlcNAc(b1-2)Man(a1-3)[Fuc(a1-2)Gal(b1-3)GlcNAc(b1-2)Man(a1-6)]Man(b1-4)GlcNAc(b1-4)GlcNAc
# How it was run: as §1
# [8] = target: Fuc(a1-2)Gal(b1-3)GlcNAc(b1-3)Gal(b1-4)Glc
# How it was run: as §1
# [9] = target: Fuc(a1-2)Gal(b1-3)GlcNAc(b1-3)[Gal(b1-4)[Fuc(a1-3)]GlcNAc(b1-6)]Gal(b1-4)Glc
# How it was run: as §1
# [10] = target: Fuc(a1-2)Gal(b1-3)[Fuc(a1-4)]GlcNAc
# How it was run: as §1
# [11] = target: Fuc(a1-2)Gal(b1-3)[Fuc(a1-4)]GlcNAc(b1-2)Man(a1-3)[Fuc(a1-2)Gal(b1-3)[Fuc(a1-4)]GlcNAc(b1-2)Man(a1-6)]Man(b1-4)GlcNAc(b1-4)GlcNAc
# How it was run: as §1
# [12] = target: Fuc(a1-2)Gal(b1-4)Glc
# How it was run: as §1
# [13] = target: Fuc(a1-2)Gal(b1-4)Glc6S
# How it was run: as §1
# [14] = target: Fuc(a1-2)Gal(b1-4)GlcNAc
# How it was run: as §1
# [15] = target: Fuc(a1-2)Gal(b1-4)GlcNAc(b1-2)Man(a1-3)[Fuc(a1-2)Gal(b1-4)GlcNAc(b1-2)Man(a1-6)]Man(b1-4)GlcNAc(b1-4)GlcNAc
# How it was run: as §1
# [16] = target: Fuc(a1-2)Gal(b1-4)GlcNAc(b1-3)Gal(b1-4)GlcNAc
# How it was run: as §1
# [17] = target: Fuc(a1-2)Gal(b1-4)GlcNAc(b1-3)Gal(b1-4)GlcNAc(b1-3)Gal(b1-4)GlcNAc
# How it was run: as §1
# [18] = target: Fuc(a1-2)Gal(b1-4)GlcNAc6S
# How it was run: as §1
# [19] = target: Fuc(a1-2)Gal(b1-4)[Fuc(a1-3)]GlcNAc
# How it was run: as §1
# [20] = target: Fuc(a1-2)Gal(b1-4)[Fuc(a1-3)]GlcNAc(b1-2)Man(a1-3)[Fuc(a1-2)Gal(b1-4)[Fuc(a1-3)]GlcNAc(b1-2)Man(a1-6)]Man(b1-4)GlcNAc(b1-4)GlcNAc
# How it was run: as §1
# [21] = target: Fuc(a1-2)Gal(b1-4)[Fuc(a1-3)]GlcNAc(b1-3)Gal(b1-4)[Fuc(a1-3)]GlcNAc
# How it was run: as §1
# [22] = target: Fuc(a1-2)Gal(b1-4)[Fuc(a1-3)]GlcNAc(b1-3)Gal(b1-4)[Fuc(a1-3)]GlcNAc(b1-3)Gal(b1-4)[Fuc(a1-3)]GlcNAc
# How it was run: as §1
# [23] = target: Fuc(a1-2)Gal6S(b1-4)Glc
# How it was run: as §1
# [24] = target: Fuc(a1-2)Gal6S(b1-4)Glc6S
# How it was run: as §1
# [25] = target: Fuc(a1-2)Gal6S(b1-4)GlcNAc
# How it was run: as §1
# [26] = target: Fuc(a1-2)[Gal(a1-3)]Gal
# How it was run: as §1
# [27] = target: Fuc(a1-2)[Gal(a1-3)]Gal(b1-3)GlcNAc
# How it was run: as §1
# [28] = target: Fuc(a1-2)[Gal(a1-3)]Gal(b1-3)GlcNAc(b1-2)Man(a1-3)[Fuc(a1-2)[Gal(a1-3)]Gal(b1-3)GlcNAc(b1-2)Man(a1-6)]Man(b1-4)GlcNAc(b1-4)GlcNAc
# How it was run: as §1
# [29] = target: Fuc(a1-2)[Gal(a1-3)]Gal(b1-4)Glc
# How it was run: as §1
# [30] = target: Fuc(a1-2)[Gal(a1-3)]Gal(b1-4)GlcNAc
# How it was run: as §1
# [31] = target: Fuc(a1-2)[Gal(a1-3)]Gal(b1-4)GlcNAc(b1-2)Man(a1-3)[Fuc(a1-2)[Gal(a1-3)]Gal(b1-4)GlcNAc(b1-2)Man(a1-6)]Man(b1-4)GlcNAc(b1-4)GlcNAc
# How it was run: as §1
# [32] = target: Fuc(a1-2)[Gal(a1-3)]Gal(b1-4)[Fuc(a1-3)]GlcNAc
# How it was run: as §1
# [33] = target: Fuc(a1-2)[Gal(a1-4)]Gal(b1-4)GlcNAc
# How it was run: as §1
# [34] = target: Fuc(a1-2)[GalNAc(a1-3)]Gal
# How it was run: as §1
# [35] = target: Fuc(a1-2)[GalNAc(a1-3)]Gal(b1-3)GlcNAc
# How it was run: as §1
# [36] = target: Fuc(a1-2)[GalNAc(a1-3)]Gal(b1-3)GlcNAc(b1-2)Man(a1-3)[Fuc(a1-2)[GalNAc(a1-3)]Gal(b1-3)GlcNAc(b1-2)Man(a1-6)]Man(b1-4)GlcNAc(b1-4)GlcNAc
# How it was run: as §1
# [37] = target: Fuc(a1-2)[GalNAc(a1-3)]Gal(b1-4)Glc
# How it was run: as §1
binder,measurement,setting,value
"Ficolin B (Rattus norvegicus), P57756 (protein) MVLGSAALFVLSLCVTELTLHAADTCPEVKVLDLEGSNKLTILQGCPGLPGALGPKGEAGAKGDRGESGLPGHPGKAGPTGPKGDRGEKGVRGEKGDTGPSQSCATGPRTCKELLTRGYFLTGWYTIYLPDCRPLTVLCDMDTDGGGWTVFQRRIDGTVDFFRDWTSYKQGFGSQLGEFWLGNDNIHALTTQGTNELRVDLADFDGNHDFAKYSSFQIQGEAEKYKLILGNFLGGGAGDSLTSQNNMLFSTKDQDNDQGSSNCAVRYHGAWWYSDCHTSNLNGLYLRGLHKSYANGVNWKSWKGYNYSYKVSEMKVRLI",glycan array binding signal (z-score),[1],-0.229
same,glycan array binding signal (z-score),[2],-0.176
same,glycan array binding signal (z-score),[3],-0.113
same,glycan array binding signal (z-score),[4],-0.242
same,glycan array binding signal (z-score),[5],-0.165
same,glycan array binding signal (z-score),[6],-0.197
same,glycan array binding signal (z-score),[7],0.365
same,glycan array binding signal (z-score),[8],-0.194
same,glycan array binding signal (z-score),[9],-0.217
same,glycan array binding signal (z-score),[10],-0.182
same,glycan array binding signal (z-score),[11],-0.027
same,glycan array binding signal (z-score),[12],-0.194
same,glycan array binding signal (z-score),[13],-0.184
same,glycan array binding signal (z-score),[14],-0.192
same,glycan array binding signal (z-score),[15],0.039
same,glycan array binding signal (z-score),[16],0.068
same,glycan array binding signal (z-score),[17],-0.183
same,glycan array binding signal (z-score),[18],-0.218
same,glycan array binding signal (z-score),[19],-0.09
same,glycan array binding signal (z-score),[20],-0.055
same,glycan array binding signal (z-score),[21],-0.205
same,glycan array binding signal (z-score),[22],-0.164
same,glycan array binding signal (z-score),[23],-0.136
same,glycan array binding signal (z-score),[24],-0.166
same,glycan array binding signal (z-score),[25],-0.13
same,glycan array binding signal (z-score),[26],-0.089
same,glycan array binding signal (z-score),[27],-0.2
same,glycan array binding signal (z-score),[28],-0.137
same,glycan array binding signal (z-score),[29],-0.191
same,glycan array binding signal (z-score),[30],-0.124
same,glycan array binding signal (z-score),[31],-0.067
same,glycan array binding signal (z-score),[32],0.067
same,glycan array binding signal (z-score),[33],0.381
same,glycan array binding signal (z-score),[34],-0.146
same,glycan array binding signal (z-score),[35],-0.039
same,glycan array binding signal (z-score),[36],-0.051
same,glycan array binding signal (z-score),[37],-0.208
